From the supplement of paper PMC10724272
MIC of invasive clinical C. tropicalis isolates, CLSI broth microdilution (fluconazole 0.12-256 mg/L, up to 1,024 for the azole-resistant cluster and its neighbour group; other ranges not stated); higher = less susceptible. Call: susceptible or wild type [S] / resistant or non-wild type [R] by CLSI breakpoints or cut-offs; intermediate and dose-dependent carry no call. '<=' and '>=' at the end values are inferred; the source marks only some of them. Isolates are numbered anew.

Columns and labels:
Test in all cases: CLSI broth microdilution.
itraconazole = compound: CCC(C)n1ncn(-c2ccc(N3CCN(c4ccc(OCC5COC(Cn6cncn6)(c6ccc(Cl)cc6Cl)O5)cc4)CC3)cc2)c1=O [itraconazole]
fluconazole = compound: OC(Cn1cncn1)(Cn1cncn1)c1ccc(F)cc1F [fluconazole]
anidulafungin = compound: CCCCCOc1ccc(-c2ccc(-c3ccc(C(=O)N[C@H]4C[C@@H](O)[C@@H](O)NC(=O)[C@@H]5[C@@H](O)[C@@H](C)CN5C(=O)[C@H]([C@@H](C)O)NC(=O)[C@H]([C@H](O)[C@@H](O)c5ccc(O)cc5)NC(=O)[C@@H]5C[C@@H](O)CN5C(=O)[C@H]([C@@H](C)O)NC4=O)cc3)cc2)cc1 [anidulafungin]
flucytosine = compound: Nc1[nH]c(=O)ncc1F [flucytosine]
micafungin = compound: CCCCCOc1ccc(-c2cc(-c3ccc(C(=O)N[C@H]4C[C@@H](O)[C@@H](O)NC(=O)[C@@H]5[C@@H](O)[C@@H](C)CN5C(=O)[C@H]([C@H](O)CC(N)=O)NC(=O)[C@H]([C@H](O)[C@@H](O)c5ccc(O)c(OS(=O)(=O)O)c5)NC(=O)[C@@H]5C[C@@H](O)CN5C(=O)[C@H]([C@@H](C)O)NC4=O)cc3)no2)cc1 [micafungin]
amphotericin B = compound: C[C@@H]1[C@H](O)[C@@H](C)/C=C/C=C/C=C/C=C/C=C/C=C/C=C/[C@H](O[C@@H]2O[C@H](C)[C@@H](O)[C@H](N)[C@@H]2O)C[C@@H]2O[C@](O)(C[C@@H](O)C[C@@H](O)[C@H](O)CC[C@@H](O)C[C@@H](O)CC(=O)O[C@H]1C)C[C@H](O)[C@H]2C(=O)O [amphotericin B]
caspofungin = compound: CC[C@H](C)C[C@H](C)CCCCCCCCC(=O)N[C@H]1C[C@@H](O)[C@@H](NCCN)NC(=O)[C@@H]2[C@@H](O)CCN2C(=O)[C@H]([C@H](O)CCN)NC(=O)[C@H]([C@H](O)[C@@H](O)c2ccc(O)cc2)NC(=O)[C@@H]2C[C@@H](O)CN2C(=O)[C@H]([C@@H](C)O)NC1=O [caspofungin]
voriconazole = compound: C[C@@H](c1ncncc1F)[C@](O)(Cn1cncn1)c1ccc(F)cc1F [voriconazole]
posaconazole = compound: CC[C@@H]([C@H](C)O)n1ncn(-c2ccc(N3CCN(c4ccc(OC[C@@H]5CO[C@@](Cn6cncn6)(c6ccc(F)cc6F)C5)cc4)CC3)cc2)c1=O [posaconazole]

Row | Test System | MIC (itraconazole) | MIC (fluconazole) | MIC (anidulafungin) | MIC (flucytosine) | MIC (micafungin) | MIC (amphotericin B) | MIC (caspofungin) | MIC (voriconazole) | MIC (posaconazole)
1 | Candida tropicalis isolate 100 (ERG11 copies: 2, Erg11p: no key change) | 1 mg/L [R] | 64 mg/L [R] | 0.06 mg/L [S] | ≤ 0.06 mg/L [S] | 0.03 mg/L [S] | 2 mg/L [S] | 0.25 mg/L [S] | 2 mg/L [R] | 2 mg/L [R]
2 | Candida tropicalis isolate 301 (ERG11 copies: 2, Erg11p: no key change) | 0.25 mg/L [S] | 2 mg/L [S] | 0.03 mg/L [S] | ≤ 0.06 mg/L [S] | 0.015 mg/L [S] | 1 mg/L [S] | 0.03 mg/L [S] | 0.12 mg/L [S] | 0.25 mg/L [S]
3 | Candida tropicalis isolate 103 (ERG11 copies: 2, Erg11p: no key change) | 0.03 mg/L [S] | 0.25 mg/L [S] | 0.06 mg/L [S] | ≥ 64 mg/L [R] | 0.015 mg/L [S] | 0.25 mg/L [S] | 0.03 mg/L [S] | ≤ 0.008 mg/L [S] | 0.03 mg/L [S]
4 | Candida tropicalis isolate 218 (ERG11 copies: 2, Erg11p: no key change) | 0.5 mg/L [S] | 2 mg/L [S] | 0.12 mg/L [S] | ≤ 0.06 mg/L [S] | 0.06 mg/L [S] | 1 mg/L [S] | 0.03 mg/L [S] | 0.12 mg/L [S] | 0.25 mg/L [S]
5 | Candida tropicalis isolate 339 (ERG11 copies: 3, Erg11p: Y132F, S154F (heterozygous)) | 1 mg/L [R] | 256 mg/L [R] | 0.12 mg/L [S] | ≤ 0.06 mg/L [S] | 0.03 mg/L [S] | 0.5 mg/L [S] | 0.06 mg/L [S] | ≥ 8 mg/L [R] | 1 mg/L [R]
6 | Candida tropicalis isolate 292 (ERG11 copies: 2, Erg11p: no key change) | 0.06 mg/L [S] | 1 mg/L [S] | 0.12 mg/L [S] | ≤ 0.06 mg/L [S] | 0.03 mg/L [S] | 1 mg/L [S] | 0.03 mg/L [S] | 0.03 mg/L [S] | 0.06 mg/L [S]
7 | Candida tropicalis isolate 287 (ERG11 copies: 2, Erg11p: no key change) | 0.25 mg/L [S] | 1 mg/L [S] | 0.12 mg/L [S] | 0.5 mg/L [S] | 0.06 mg/L [S] | 1 mg/L [S] | 0.03 mg/L [S] | 0.12 mg/L [S] | 0.25 mg/L [S]
8 | Candida tropicalis isolate 186 (ERG11 copies: 2, Erg11p: no key change) | 0.03 mg/L [S] | 0.25 mg/L [S] | 0.06 mg/L [S] | ≥ 64 mg/L [R] | 0.015 mg/L [S] | 0.5 mg/L [S] | 0.03 mg/L [S] | ≤ 0.008 mg/L [S] | 0.03 mg/L [S]
9 | Candida tropicalis isolate 119 (ERG11 copies: 2, Erg11p: no key change) | 0.12 mg/L [S] | 1 mg/L [S] | 0.25 mg/L [S] | ≤ 0.06 mg/L [S] | 0.06 mg/L [S] | 1 mg/L [S] | 0.03 mg/L [S] | 0.06 mg/L [S] | 0.06 mg/L [S]
10 | Candida tropicalis isolate 325 (ERG11 copies: 2, Erg11p: no key change) | 0.25 mg/L [S] | 2 mg/L [S] | 0.03 mg/L [S] | ≤ 0.06 mg/L [S] | 0.03 mg/L [S] | 0.5 mg/L [S] | 0.03 mg/L [S] | 0.25 µg/mL | 0.25 mg/L [S]
11 | Candida tropicalis isolate 403 (ERG11 copies: 2, Erg11p: no key change) | 0.12 mg/L [S] | 1 mg/L [S] | 0.06 mg/L [S] | ≤ 0.06 mg/L [S] | 0.03 mg/L [S] | 1 mg/L [S] | 0.06 mg/L [S] | 0.06 mg/L [S] | 0.12 mg/L [S]
12 | Candida tropicalis isolate 422 (ERG11 copies: 2, Erg11p: no key change) | 0.25 mg/L [S] | 2 mg/L [S] | ≤ 0.015 mg/L [S] | ≤ 0.06 mg/L [S] | 0.015 mg/L [S] | 1 mg/L [S] | 0.03 mg/L [S] | 0.12 mg/L [S] | 0.25 mg/L [S]
13 | Candida tropicalis isolate 203 (ERG11 copies: 3, Erg11p: Y132F, S154F (heterozygous)) | 1 mg/L [R] | 128 mg/L [R] | 0.12 mg/L [S] | ≤ 0.06 mg/L [S] | 0.06 mg/L [S] | 0.5 mg/L [S] | 0.12 mg/L [S] | 4 mg/L [R] | 0.5 mg/L [R]
14 | Candida tropicalis isolate 37 (ERG11 copies: 2, Erg11p: no key change) | ≥ 16 mg/L [R] | 256 mg/L [R] | 0.12 mg/L [S] | ≤ 0.06 mg/L [S] | 0.03 mg/L [S] | 1 mg/L [S] | 0.25 mg/L [S] | 4 mg/L [R] | 2 mg/L [R]
15 | Candida tropicalis isolate 372 (ERG11 copies: 2, Erg11p: no key change) | 0.06 mg/L [S] | 0.5 mg/L [S] | 0.12 mg/L [S] | 0.12 mg/L [S] | 0.03 mg/L [S] | 0.25 mg/L [S] | 0.06 mg/L [S] | 0.03 mg/L [S] | 0.03 mg/L [S]
16 | Candida tropicalis isolate 342 (ERG11 copies: 2, Erg11p: no key change) | 0.12 mg/L [S] | 2 mg/L [S] | 0.06 mg/L [S] | 0.12 mg/L [S] | 0.03 mg/L [S] | 1 mg/L [S] | 0.03 mg/L [S] | 0.12 mg/L [S] | 0.25 mg/L [S]
17 | Candida tropicalis isolate 148 (ERG11 copies: 2, Erg11p: no key change) | 0.5 mg/L [S] | 4 µg/mL | 0.12 mg/L [S] | ≤ 0.06 mg/L [S] | 0.06 mg/L [S] | 1 mg/L [S] | 0.12 mg/L [S] | 0.5 µg/mL | 0.5 mg/L [R]
18 | Candida tropicalis isolate 22 (ERG11 copies: 2, Erg11p: no key change) | 0.25 mg/L [S] | 4 µg/mL | 0.12 mg/L [S] | ≤ 0.06 mg/L [S] | 0.015 mg/L [S] | 0.5 mg/L [S] | 0.03 mg/L [S] | 0.25 µg/mL | 0.25 mg/L [S]
